Laboratory results published in ChEMBL document CHEMBL1201862, “PubChem BioAssay data set” (2004).
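Briefly, cells in 96-well plates were exposed to five compound concentrations for 48 h, and endpoints were estimated by linear interpolation. At the GI50, growth is halved.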 Calls of active or inactive are those of the source. Rule as the data show it: active = GI50 up to about 1.1 µM and inactive = higher.

Columns and labels:
Test in all cases: inhibition of tumour cell growth, NCI panel, 48 h
786-0 = tested on: 786-0
A498 = tested on: A498
A549 = tested on: A549
ACHN = tested on: ACHN
BT-549 = tested on: BT-549
CAKI-1 = tested on: CAKI-1
CCRF-CEM = tested on: CCRF-CEM
COLO 205 = tested on: COLO 205
DU-145 = tested on: DU-145
EKVX = tested on: EKVX
HCC 2998 = tested on: HCC 2998
HCT-116 = tested on: HCT-116
HCT-15 = tested on: HCT-15
HL-60 = tested on: HL-60
HOP-62 = tested on: HOP-62
HOP-92 = tested on: HOP-92
Hs-578T = tested on: Hs-578T
IGROV-1 = tested on: IGROV-1
K562 = tested on: K562
KM12 = tested on: KM12
LOX IMVI = tested on: LOX IMVI
M14 = tested on: M14
MCF7 = tested on: MCF7
MDA-MB-231 = tested on: MDA-MB-231
MDA-MB-435 = tested on: MDA-MB-435
MDA-N = tested on: MDA-N
MOLT-4 = tested on: MOLT-4
Malme-3M = tested on: Malme-3M
NCI-H23 = tested on: NCI-H23
NCI-H460 = tested on: NCI-H460
NCI-H522 = tested on: NCI-H522
NCI/ADR-RES = tested on: NCI/ADR-RES
OVCAR-3 = tested on: OVCAR-3
OVCAR-4 = tested on: OVCAR-4
OVCAR-5 = tested on: OVCAR-5
OVCAR-8 = tested on: OVCAR-8
PC-3 = tested on: PC-3
RPMI-8226 = tested on: RPMI-8226
RXF 393 = tested on: RXF 393
SF-268 = tested on: SF-268
SF-295 = tested on: SF-295
SK-MEL-28 = tested on: SK-MEL-28
SK-MEL-2 = tested on: SK-MEL-2
SK-MEL-5 = tested on: SK-MEL-5
SK-OV-3 = tested on: SK-OV-3
SN12C = tested on: SN12C
SNB-19 = tested on: SNB-19
SNB-75 = tested on: SNB-75
SR = tested on: SR
SW-620 = tested on: SW-620
T47D = tested on: T47D
TK-10 = tested on: TK-10
U-251 = tested on: U-251
UACC-257 = tested on: UACC-257
UACC-62 = tested on: UACC-62
UO-31 = tested on: UO-31

Measured: GI50

O=C1Cc2c([nH]c3cc(Cl)cc(Cl)c23)-c2ccccc2N1
inactive: 786-0 = > 100 µM | A498 = > 100 µM | A549 = > 100 µM | ACHN > 100 µM | BT-549 = > 100 µM | CAKI-1 = > 100 µM | CCRF-CEM > 100 µM | COLO 205 = > 100 µM | DU-145 = > 100 µM | EKVX > 100 µM | HCC 2998 = > 100 µM | HCT-116 = > 100 µM | HL-60 = 25.9 µM | HOP-62 = 59 µM | HOP-92 = > 100 µM | Hs-578T > 100 µM | IGROV-1 = > 100 µM | K562 = 34 µM | KM12 = > 100 µM | LOX IMVI > 100 µM | M14 = > 100 µM | MCF7 = > 100 µM | MDA-MB-231 = > 100 µM | MDA-MB-435 = > 100 µM | MDA-N > 100 µM | MOLT-4 = 77.4 µM | Malme-3M > 100 µM | NCI-H23 = > 100 µM | NCI-H460 = > 100 µM | NCI-H522 = > 100 µM | NCI/ADR-RES > 100 µM | OVCAR-3 = > 100 µM | OVCAR-4 = > 100 µM | OVCAR-5 = > 100 µM | OVCAR-8 = > 100 µM | PC-3 = > 100 µM | RPMI-8226 = > 100 µM | RXF 393 = > 100 µM | SF-268 = > 100 µM | SF-295 = 77.8 µM | SK-MEL-28 = > 100 µM | SK-MEL-2 = > 100 µM | SK-MEL-5 = > 100 µM | SK-OV-3 = > 100 µM | SN12C > 100 µM | SNB-19 = > 100 µM | SNB-75 = 29.2 µM | SR > 100 µM | SW-620 = > 100 µM | T47D > 100 µM | TK-10 = > 100 µM | U-251 = > 100 µM | UACC-257 = > 100 µM | UACC-62 = > 100 µM | UO-31 = > 100 µM
> 100 µM: HCT-15
